The nature of data set [1]: Measurement of paracellular transport (Ppara) in MDCK-MDR1 cells with and without P-gp inhibitors. It counts as in vitro ADME, canine. To be noted: dog. The source says: In initial fits, we used experimentally obtained values for Ppara , determined by measuring the Papp of the relevant compound at a pH value where paracellular transport was expected to dominate. Since the compounds in this study are P-gp substrates, elacridar was also used to inhibit P-gp. Under these conditions, the measured Papp is expected to be a measure of Ppara . […]
X Measurement of paracellular transport […]
assess its relative contribution to overall flux, it is necessary to quantify paracellular transport in some way. An approximation of paracellular transport can be mathematically calculated as desc ribed in […]
and cell type can influence and complicate the predictions, leading to uncertainties. H owever, it can also be experimentally measured provided that it can be assured that the P app would be dominated by the contribution of P para . […]
compounds. In order to ensure paracellular dominance, 2 µM elacridar was used to inhibit potential P-gp facilitated efflux, and the transport buffer was set to a pH that would severely restrict the neutral […]
Table S13: P app values and measured logP para for basic and acidic marker compounds. P app values are the mean of three timepoints per replicate, for a total of three replicates (n = 3) ± standard […]
Compound pH Papp, A⟶B logP para Recovery fn
In light of the uncertainties in predicting P para , it was presumed more apt to measure P para for each compound individually in parallel with the pH dependence experiments. As described in Section 4.3 of the main text, experiments were initially performed for each tested compound with inhibitor and appropriate pH values (similar to those performed for Table S12) in an attempt to ensure the dominance of paracellular transport. These values could then be used as a direct measure for P para for each compound that could be fed to the model for its individual fit. […]
affecting P para and/or the measurement of it, we measured the P app of more commonly-used markers for paracellular transport with and without inhibitor. The transport of these rather hydrophilic compounds is known to be dominated by the paracellular route. Furthermore, for our MDCK- MDR1 […]
efflux is not expected to play a role. As such, the addition of inhibitor in this case is purely to evaluate if the P app changes when it is present.

Data set [2] concerns MDCK-MDR1 cells. Description: Comparison of Papp,B-A with and without inhibitor in MDCK-MDR1 cells (own and literature data). To be noted: calculated from literature Papp,B⟶A and Papp with inhibitor; pH 7.4 iso-method.
Data set [3] concerns MDCK-MDR1 cells. To be noted: cited from earlier work.
The mark [4] stands for this setting: with inhibitor, pH 7.4 iso-method, ref Doan et al. (2002).
[5] abbreviates: with inhibitor, pH 7.4 iso-method, ref Obradovic et al. (2007).
[6] abbreviates: without inhibitor, pH 7.4 iso-method, ref Doan et al. (2002).
Where [7] appears, read: without inhibitor, pH 7.4 iso-method, ref Obradovic et al. (2007).

Structures are written as SMILES. “And” between values parts separate entries of the source, which are not always exact repeats. Equal values may be shown once. Read-outs that look alike come from different tables or passages of the source.

A word on the Papp: it is the rate of passage across a membrane or cell layer, normalised by area and donor concentration. The Papp B→A is how fast a substance crosses the layer from the basolateral side. For the compound `CC(C)NCC(O)COc1ccc(CC(N)=O)cc1` (stereo not shown) [Atenolol], the Papp was determined as 0.1 ×10⁻⁶ cm/s in data set [1] (MDCK-MDR1, pH 6, A⟶B, no inhibitor, pH 6, one replicate, read-out: Papp) and 0.4 ×10⁻⁶ cm/s in data set [1] (MDCK-MDR1, pH 6, with elacridar 2 µM, A⟶B + 2 µM elacridar, pH 6, one replicate, read-out: Papp). The Papp B→A in data set [1] (MDCK-MDR1, B⟶A, no inhibitor, pH 6, one replicate) came to 0.1 ×10⁻⁶ cm/s.

For the compound `O=C(O)COCCN1CCN(C(c2ccccc2)c2ccc(Cl)cc2)CC1` (stereo not shown) [Cetirizine], the Factor difference in data set [2] was 5 and 7. Further, the entries for the “Papp, inhibitor” value in data set [3] (setting [4]) and in data set [3] (setting [5]) were 4e-06 cm/s and 2.46e-06 cm/s, respectively. Further, the figures for the “Papp, B⟶A” value in data set [3] (setting [6]) and in data set [3] (setting [7]) were 2.17e-05 cm/s and 1.83e-05 cm/s, respectively.

With `CN(C)CCOC(c1ccccc1)c1ccccc1` [Diphenhydramine], the “Papp, inhibitor” value in data set [3] (setting [4]) is 7.78e-05 cm/s. For the same compound, in data set [3] (setting [6]), the “Papp, B⟶A” value is 0.0001037 cm/s.

`NS(=O)(=O)c1cc(C(=O)O)c(NCc2ccco2)cc1Cl` [Furosemide]: the recovery turned out to be 100% in data set [1] (MDCK-MDR1, pH 9, B⟶A, no inhibitor, pH 9) and 100% in data set [1] (MDCK-MDR1, pH 9, with elacridar 2 µM, + 2 µM elacridar, pH 9, n = 3 (Table S13)). For the same compound, the Papp was found to be 1.5 ± 0.4 ×10⁻⁶ cm/s in data set [1] (MDCK-MDR1, pH 9, with elacridar 2 µM, + 2 µM elacridar, pH 9, three replicates (n = 3) (Table S13), read-out: Papp, A⟶B) and 1.1 ± 0.4 ×10⁻⁶ cm/s in data set [1] (MDCK-MDR1, pH 9, with elacridar 2 µM, A⟶B + 2 µM elacridar, pH 9, one replicate (Table S14), read-out: Papp).

With `CCOC(=O)N1CCC(=C2c3ccc(Cl)cc3CCc3cccnc32)CC1` [Loratadine], the Factor difference in data set [2] is recorded as 1. Moreover, in data set [3] (setting [5]), the “Papp, inhibitor” value was 3.964e-05 cm/s. The “Papp, B⟶A” value in data set [3] (setting [7]) was 3.5e-05 cm/s.

`CN1CC[C@]23c4c5ccc(O)c4O[C@H]2[C@@H](O)C=C[C@H]3[C@H]1C5` [Morphine]: in data set [3] (MDCK-MDR1, pH 7.4), the “Papp, B⟶A” value is given as 14.4 and the “Papp, inhibitor” value is reported as 8.62.

The values are drawn from PMC11637191, “The pH-dependence of efflux ratios determined with bidirectional transport assays across cellular monolayers” (International Journal of Pharmaceutics: X, 2024).
